Where a chain is given by its changes, count along the chain named. These are yes or no findings as the source states them, for the method shown. Binding seen in cells or lysates may run through a third protein. Some results given as binding are weak or reduced against the parent protein; the word gives no strength.
T1: PTPRK D2 pseudophosphatase domain (human) (UniProt Q15262)
T1 sequence (chain, biotin on the AviTag): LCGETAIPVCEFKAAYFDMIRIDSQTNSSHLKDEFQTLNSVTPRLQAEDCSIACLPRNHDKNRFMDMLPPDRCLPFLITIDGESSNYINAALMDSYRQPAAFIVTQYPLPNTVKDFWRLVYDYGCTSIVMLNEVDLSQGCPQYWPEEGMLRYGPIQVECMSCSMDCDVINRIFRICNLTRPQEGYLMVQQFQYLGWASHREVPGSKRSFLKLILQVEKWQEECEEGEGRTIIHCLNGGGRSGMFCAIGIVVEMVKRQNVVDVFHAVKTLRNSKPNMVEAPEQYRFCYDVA

Protein sequences, listed by entry. Tags and fused reporters are not part of them. Residues count along the entry.
UniProt P28827, residues 877-1452: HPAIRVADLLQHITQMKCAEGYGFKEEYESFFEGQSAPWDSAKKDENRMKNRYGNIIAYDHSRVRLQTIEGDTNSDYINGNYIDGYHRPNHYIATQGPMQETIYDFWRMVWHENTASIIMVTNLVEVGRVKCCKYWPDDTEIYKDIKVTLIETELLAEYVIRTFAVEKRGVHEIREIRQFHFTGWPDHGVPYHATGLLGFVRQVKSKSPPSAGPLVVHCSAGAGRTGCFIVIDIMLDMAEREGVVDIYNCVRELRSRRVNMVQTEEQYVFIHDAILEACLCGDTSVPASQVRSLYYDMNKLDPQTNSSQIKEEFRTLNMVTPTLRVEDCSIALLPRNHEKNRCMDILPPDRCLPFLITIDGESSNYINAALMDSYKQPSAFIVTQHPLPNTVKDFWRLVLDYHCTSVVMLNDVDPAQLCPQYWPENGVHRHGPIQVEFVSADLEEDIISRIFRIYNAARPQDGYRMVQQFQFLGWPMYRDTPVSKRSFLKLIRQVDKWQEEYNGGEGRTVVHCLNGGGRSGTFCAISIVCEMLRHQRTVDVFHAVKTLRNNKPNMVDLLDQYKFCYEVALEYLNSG
UniProt P40763: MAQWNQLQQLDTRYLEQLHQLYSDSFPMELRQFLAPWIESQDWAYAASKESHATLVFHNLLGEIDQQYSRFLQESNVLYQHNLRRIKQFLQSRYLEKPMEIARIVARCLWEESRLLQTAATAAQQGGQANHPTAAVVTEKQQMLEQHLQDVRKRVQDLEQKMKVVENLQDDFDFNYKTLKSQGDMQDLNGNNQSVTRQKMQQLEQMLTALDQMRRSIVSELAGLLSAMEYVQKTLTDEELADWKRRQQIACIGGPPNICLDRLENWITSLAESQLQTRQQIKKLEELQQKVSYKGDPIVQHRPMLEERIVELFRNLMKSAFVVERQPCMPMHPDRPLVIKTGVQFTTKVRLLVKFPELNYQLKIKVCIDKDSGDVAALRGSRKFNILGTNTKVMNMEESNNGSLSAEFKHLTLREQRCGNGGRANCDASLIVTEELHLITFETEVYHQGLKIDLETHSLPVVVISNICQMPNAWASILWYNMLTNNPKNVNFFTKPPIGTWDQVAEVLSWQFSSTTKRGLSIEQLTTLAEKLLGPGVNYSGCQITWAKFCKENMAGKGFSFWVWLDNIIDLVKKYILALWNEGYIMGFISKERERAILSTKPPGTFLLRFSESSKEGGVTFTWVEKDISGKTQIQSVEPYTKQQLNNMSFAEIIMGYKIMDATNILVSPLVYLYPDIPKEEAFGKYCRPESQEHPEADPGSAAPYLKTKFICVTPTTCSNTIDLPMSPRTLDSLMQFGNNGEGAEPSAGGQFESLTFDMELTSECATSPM
UniProt O95819: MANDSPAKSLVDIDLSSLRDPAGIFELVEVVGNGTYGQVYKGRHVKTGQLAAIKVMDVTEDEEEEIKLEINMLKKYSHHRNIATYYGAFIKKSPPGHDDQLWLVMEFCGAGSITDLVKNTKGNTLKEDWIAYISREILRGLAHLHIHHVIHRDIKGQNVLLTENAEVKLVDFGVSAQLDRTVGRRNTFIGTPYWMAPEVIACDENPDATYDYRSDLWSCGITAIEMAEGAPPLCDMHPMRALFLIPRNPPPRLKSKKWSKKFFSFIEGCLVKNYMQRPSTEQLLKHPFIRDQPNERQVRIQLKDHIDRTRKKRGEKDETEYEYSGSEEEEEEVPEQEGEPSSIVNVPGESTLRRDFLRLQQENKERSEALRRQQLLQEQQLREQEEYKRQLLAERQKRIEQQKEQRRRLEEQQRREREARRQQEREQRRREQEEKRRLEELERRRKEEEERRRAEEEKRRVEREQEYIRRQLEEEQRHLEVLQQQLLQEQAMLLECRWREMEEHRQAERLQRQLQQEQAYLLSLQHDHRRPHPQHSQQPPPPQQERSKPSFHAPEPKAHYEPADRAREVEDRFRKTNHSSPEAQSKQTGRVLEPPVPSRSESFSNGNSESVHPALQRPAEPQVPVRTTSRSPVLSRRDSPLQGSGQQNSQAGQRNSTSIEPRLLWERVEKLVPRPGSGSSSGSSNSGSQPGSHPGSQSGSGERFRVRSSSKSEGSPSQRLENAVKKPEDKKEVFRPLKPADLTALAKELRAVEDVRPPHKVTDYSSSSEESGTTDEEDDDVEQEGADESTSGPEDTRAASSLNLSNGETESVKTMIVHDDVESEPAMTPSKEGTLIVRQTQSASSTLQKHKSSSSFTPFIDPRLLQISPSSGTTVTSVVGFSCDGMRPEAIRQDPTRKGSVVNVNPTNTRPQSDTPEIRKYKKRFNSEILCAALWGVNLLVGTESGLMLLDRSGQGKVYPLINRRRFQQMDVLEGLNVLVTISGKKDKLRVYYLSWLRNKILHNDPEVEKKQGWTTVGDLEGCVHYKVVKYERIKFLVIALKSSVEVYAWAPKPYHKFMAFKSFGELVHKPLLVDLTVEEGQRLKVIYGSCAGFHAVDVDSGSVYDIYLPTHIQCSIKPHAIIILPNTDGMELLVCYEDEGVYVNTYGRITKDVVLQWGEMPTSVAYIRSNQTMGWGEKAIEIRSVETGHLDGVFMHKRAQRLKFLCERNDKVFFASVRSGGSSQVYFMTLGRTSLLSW
UniProt P35222: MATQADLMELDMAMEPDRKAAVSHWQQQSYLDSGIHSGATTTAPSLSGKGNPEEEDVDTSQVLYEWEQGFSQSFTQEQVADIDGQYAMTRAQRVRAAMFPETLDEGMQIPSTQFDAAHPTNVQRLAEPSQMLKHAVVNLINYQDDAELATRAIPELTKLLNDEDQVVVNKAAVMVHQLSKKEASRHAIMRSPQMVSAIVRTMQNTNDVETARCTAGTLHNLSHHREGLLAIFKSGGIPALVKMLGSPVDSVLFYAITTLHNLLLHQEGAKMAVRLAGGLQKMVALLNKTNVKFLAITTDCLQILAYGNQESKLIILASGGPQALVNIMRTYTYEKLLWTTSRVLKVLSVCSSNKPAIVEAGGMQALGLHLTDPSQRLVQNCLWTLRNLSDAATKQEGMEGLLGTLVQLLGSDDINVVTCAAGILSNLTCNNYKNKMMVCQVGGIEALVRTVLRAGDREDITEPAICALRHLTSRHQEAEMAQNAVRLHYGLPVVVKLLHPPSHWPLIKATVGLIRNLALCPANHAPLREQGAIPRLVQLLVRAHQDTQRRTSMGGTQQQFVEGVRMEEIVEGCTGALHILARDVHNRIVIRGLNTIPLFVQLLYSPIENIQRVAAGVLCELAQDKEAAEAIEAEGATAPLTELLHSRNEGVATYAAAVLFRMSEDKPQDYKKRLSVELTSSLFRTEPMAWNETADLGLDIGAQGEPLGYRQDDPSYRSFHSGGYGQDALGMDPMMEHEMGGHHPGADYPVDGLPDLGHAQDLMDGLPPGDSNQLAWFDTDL
UniProt Q8TEW0: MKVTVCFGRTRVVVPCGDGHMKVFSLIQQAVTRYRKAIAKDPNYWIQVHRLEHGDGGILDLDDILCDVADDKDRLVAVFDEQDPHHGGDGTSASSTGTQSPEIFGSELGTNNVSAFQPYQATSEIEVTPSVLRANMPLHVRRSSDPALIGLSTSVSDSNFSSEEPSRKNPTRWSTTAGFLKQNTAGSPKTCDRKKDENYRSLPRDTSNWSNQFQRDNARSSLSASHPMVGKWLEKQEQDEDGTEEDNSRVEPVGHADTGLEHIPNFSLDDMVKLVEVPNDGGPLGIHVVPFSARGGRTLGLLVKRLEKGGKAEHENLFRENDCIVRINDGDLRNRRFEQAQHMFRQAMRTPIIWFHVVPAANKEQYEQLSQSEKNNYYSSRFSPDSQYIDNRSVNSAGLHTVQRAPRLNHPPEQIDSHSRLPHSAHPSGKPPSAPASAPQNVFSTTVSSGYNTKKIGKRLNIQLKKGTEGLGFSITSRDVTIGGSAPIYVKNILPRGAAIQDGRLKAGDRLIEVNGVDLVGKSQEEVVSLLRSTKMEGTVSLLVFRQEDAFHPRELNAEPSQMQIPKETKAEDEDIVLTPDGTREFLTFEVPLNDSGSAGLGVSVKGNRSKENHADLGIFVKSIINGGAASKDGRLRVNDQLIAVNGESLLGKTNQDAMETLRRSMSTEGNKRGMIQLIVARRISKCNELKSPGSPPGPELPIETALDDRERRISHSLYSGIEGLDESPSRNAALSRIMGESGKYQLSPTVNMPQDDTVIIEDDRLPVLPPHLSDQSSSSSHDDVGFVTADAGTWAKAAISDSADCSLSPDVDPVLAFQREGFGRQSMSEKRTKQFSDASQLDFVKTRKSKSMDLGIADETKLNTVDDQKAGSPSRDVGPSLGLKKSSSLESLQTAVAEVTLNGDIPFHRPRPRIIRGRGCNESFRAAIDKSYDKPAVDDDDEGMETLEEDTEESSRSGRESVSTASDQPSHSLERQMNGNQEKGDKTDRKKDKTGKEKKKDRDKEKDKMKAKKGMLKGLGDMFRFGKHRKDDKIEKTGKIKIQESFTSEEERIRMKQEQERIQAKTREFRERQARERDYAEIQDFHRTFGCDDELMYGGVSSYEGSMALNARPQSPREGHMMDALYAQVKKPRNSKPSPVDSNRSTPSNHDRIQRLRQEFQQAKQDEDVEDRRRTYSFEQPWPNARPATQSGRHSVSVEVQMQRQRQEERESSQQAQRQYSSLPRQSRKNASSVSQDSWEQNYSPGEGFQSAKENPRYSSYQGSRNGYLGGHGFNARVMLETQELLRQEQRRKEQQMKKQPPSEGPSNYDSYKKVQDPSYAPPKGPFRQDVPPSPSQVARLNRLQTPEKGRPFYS
UniProt P49023: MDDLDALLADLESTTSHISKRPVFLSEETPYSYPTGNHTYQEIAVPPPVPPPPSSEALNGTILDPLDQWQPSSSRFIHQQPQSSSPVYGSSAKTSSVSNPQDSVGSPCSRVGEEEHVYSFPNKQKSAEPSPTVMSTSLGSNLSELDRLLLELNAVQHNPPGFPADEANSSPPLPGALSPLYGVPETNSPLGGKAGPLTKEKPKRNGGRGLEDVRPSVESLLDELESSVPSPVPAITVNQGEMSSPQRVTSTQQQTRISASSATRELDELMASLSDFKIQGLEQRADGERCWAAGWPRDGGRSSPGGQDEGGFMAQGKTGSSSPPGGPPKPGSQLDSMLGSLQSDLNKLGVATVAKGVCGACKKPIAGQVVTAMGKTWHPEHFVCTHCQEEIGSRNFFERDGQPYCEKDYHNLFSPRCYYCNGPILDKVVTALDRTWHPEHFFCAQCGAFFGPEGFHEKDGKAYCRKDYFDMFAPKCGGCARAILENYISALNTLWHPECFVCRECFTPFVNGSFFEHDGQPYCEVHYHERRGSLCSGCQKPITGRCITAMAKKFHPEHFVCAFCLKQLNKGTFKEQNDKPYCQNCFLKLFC

T2: PTPRK ICD-C1089S (substrate-trapping mutant) (human) (UniProt Q15262)
T2 sequence (chain, biotin on the AviTag): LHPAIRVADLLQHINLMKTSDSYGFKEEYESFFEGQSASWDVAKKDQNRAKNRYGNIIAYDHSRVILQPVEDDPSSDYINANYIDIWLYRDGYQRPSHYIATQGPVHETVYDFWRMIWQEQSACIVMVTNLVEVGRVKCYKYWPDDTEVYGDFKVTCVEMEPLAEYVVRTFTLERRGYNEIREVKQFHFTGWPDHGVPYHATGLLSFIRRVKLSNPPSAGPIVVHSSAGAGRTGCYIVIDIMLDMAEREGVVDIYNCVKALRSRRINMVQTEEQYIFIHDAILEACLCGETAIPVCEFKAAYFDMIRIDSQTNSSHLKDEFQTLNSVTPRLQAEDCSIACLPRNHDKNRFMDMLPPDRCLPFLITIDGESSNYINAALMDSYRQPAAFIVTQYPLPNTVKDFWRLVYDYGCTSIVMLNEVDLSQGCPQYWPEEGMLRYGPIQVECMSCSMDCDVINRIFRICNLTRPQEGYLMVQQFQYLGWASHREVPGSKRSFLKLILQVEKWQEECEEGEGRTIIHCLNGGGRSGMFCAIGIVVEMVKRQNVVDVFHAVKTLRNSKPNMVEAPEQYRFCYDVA

T3: PTPRK ICD-D1057A (substrate-trapping mutant) (human) (UniProt Q15262)
T3 sequence (chain, biotin on the AviTag): T2 sequence (chain, biotin on the AviTag) with D194A, S226C

B1: p120^Cat (protein, UniProt O60716 1-968)
chain: MDDSEVESTASILASVKEQEAQFEKLTRALEEERRHVSAQLERVRVSPQDANPLMANGTLTRRHQNGRFVGDADLERQKFSDLKLNGPQDHSHLLYSTIPRMQEPGQIVETYTEEDPEGAMSVVSVETSDDGTTRRTETTVKKVVKTVTTRTVQPVAMGPDGLPVDASSVSNNYIQTLGRDFRKNGNGGPGPYVGQAGTATLPRNFHYPPDGYSRHYEDGYPGGSDNYGSLSRVTRIEERYRPSMEGYRAPSRQDVYGPQPQVRVGGSSVDLHRFHPEPYGLEDDQRSMGYDDLDYGMMSDYGTARRTGTPSDPRRRLRSYEDMIGEEVPSDQYYWAPLAQHERGSLASLDSLRKGGPPPPNWRQPELPEVIAMLGFRLDAVKSNAAAYLQHLCYRNDKVKTDVRKLKGIPVLVGLLDHPKKEVHLGACGALKNISFGRDQDNKIAIKNCDGVPALVRLLRKARDMDLTEVITGTLWNLSSHDSIKMEIVDHALHALTDEVIIPHSGWEREPNEDCKPRHIEWESVLTNTAGCLRNVSSERSEARRKLRECDGLVDALIFIVQAEIGQKDSDSKLVENCVCLLRNLSYQVHREIPQAERYQEAAPNVANNTGPHAASCFGAKKGKDEWFSRGKKPIEDPANDTVDFPKRTSPARGYELLFQPEVVRIYISLLKESKTPAILEASAGAIQNLCAGRWTYGRYIRSALRQEKALSAIADLLTNEHERVVKAASGALRNLAVDARNKELIGKHAIPNLVKNLPGGQQNSSWNFSEDTVISILNTINEVIAENLEAAKKLRETQGIEKLVLINKSGNRSEKEVRAAALVLQTIWGYKELRKPLEKEGWKKSDFQVNLNNASRSQSSHSYDDSTLPLIDRNQKSDKKPDREEIQMSNMGSNTKSLDNNYSTPNERGDHNRTLDRSGDLGDMEPLKGTTPLMQDEGQESLEEELDVLVLDDEGGQVSYPSMQKI

Key:
[1] = molecular target: T1, PTPRK D2 pseudophosphatase domain (human); experiment: pull-down; biotinylated His.TEV.Avi PTPRK, PTPRM or chimeric domains on streptavidin-coated magnetic beads; lysate of confluent, pervanadate-treated MCF10A cells, 1.5 hr at 4°C; immunoblot of inputs, supernatants and pull downs; only the target purified
[2] = molecular target: T2, PTPRK ICD-C1089S (substrate-trapping mutant) (human); experiment: as above
[3] = molecular target: T3, PTPRK ICD-D1057A (substrate-trapping mutant) (human); experiment: as above
[4] = molecular target: T3, PTPRK ICD-D1057A (substrate-trapping mutant) (human); experiment: pull-down; pull downs from confluent, pervanadate-treated MCF10A lysates with PTPRK D1057A ICD or PTPRK-D2, then incubated with 20 mM vanadate for 30 min; immunoblot of eluates and pull downs; only the target purified
[5] = molecular target: PTPRM intracellular domain (ICD) (human) (UniProt P28827); experiment: pull-down; biotinylated His.TEV.Avi PTPRK, PTPRM or chimeric domains on streptavidin-coated magnetic beads; lysate of confluent, pervanadate-treated MCF10A cells, 1.5 hr at 4°C; immunoblot of inputs, supernatants and pull downs; only the target purified
[6] = molecular target: T2, PTPRK ICD-C1089S (substrate-trapping mutant) (human); experiment: pull-down; confluent, pervanadate-treated MCF10A lysates treated with CIP to remove protein phosphorylation (20 U/ml at 4°C for 16 hr is told for the D2 experiment), then pull downs with PTPRK C1089S ICD or PTPRK D2; immunoblot; only the target purified

Molecule	binding [1]	binding [2]	binding [3]	binding [4]	binding [5]	binding [6]
STAT3 (from UniProt P40763 1-770)	no binding	no binding	no binding	–	–	–
MAP4K4 (from UniProt O95819 1-1239)	–	–	binds	binds	binds	–
β-Catenin (from UniProt P35222 1-781)	no binding	no binding	no binding	–	–	–
PARD3 (from UniProt Q8TEW0 1-1356)	–	binds	–	–	binds	binds
Paxillin (from UniProt P49023 1-591)	no binding	no binding	no binding	–	–	–
RAPGEF6 (from UniProt Q8TEU7 1-1601)	–	–	binds	binds	–	–
B1	–	binds	–	–	binds	binds
